“And” between values parts separate entries of the source, which are not always exact repeats. Identical values can stand only once. Screen size: about 410,000 compounds; about 6,400 (1.6%) were called active. The shares of active, inactive and inconclusive entries below differ from those in the screen. Calls come from the whole dose curve; as a rule, active = well fitted inhibition curve with a large enough effect; inconclusive = small, poorly fitted or top-dose-only effect; inactive = no such curve, though single readings can be large or run the other way. A potency beside an inconclusive call is a rough fit, not a confirmed value.
Target: Glucagon-like peptide 1 receptor (Homo sapiens) (UniProt P43220)
UniProt P43220, sequence (P43220 whole entry, looked up): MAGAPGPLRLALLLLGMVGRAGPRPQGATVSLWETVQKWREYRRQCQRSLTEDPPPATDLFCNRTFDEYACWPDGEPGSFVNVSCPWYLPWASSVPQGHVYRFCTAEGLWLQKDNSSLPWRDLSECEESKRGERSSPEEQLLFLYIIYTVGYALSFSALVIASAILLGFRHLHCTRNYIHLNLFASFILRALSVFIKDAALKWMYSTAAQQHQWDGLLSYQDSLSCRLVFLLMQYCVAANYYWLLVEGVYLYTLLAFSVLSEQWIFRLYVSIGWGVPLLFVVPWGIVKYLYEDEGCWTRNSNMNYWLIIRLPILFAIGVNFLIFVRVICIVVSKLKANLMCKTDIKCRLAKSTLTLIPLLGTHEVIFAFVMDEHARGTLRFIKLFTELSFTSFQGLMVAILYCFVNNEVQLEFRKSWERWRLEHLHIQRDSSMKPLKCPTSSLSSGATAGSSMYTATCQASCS
Test: qHTS of GLP-1 Receptor Inverse Agonists (Inhibition Mode); note: nearly all actives have a fitted effect of over 55% in size
Details: HEK293 GLP-1R CRE-luciferase, luminescence, 24 h, GLP-1R form is constitutively active; activity change, negative = inhibition: at 38.3 µM (top of the series) unless noted
Method in brief: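 Stable HEK293 clone (constitutively active GLP-1R + cAMP-response luciferase); 200 cells/uL plated, 12 h pre-culture, compound 24 hr, 37 deg C/5% CO2; detection reagent 12 min RT; luminescence.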
% is set by controls: 0 for no effect and ±100 for the full control effect; potency is the fitted concentration of half-maximal effect; tags give direction and shape of the fitted curve.

**Q.** Which Potency does the source give for O=C(NCCSCc1ccco1)Nc1ccc(Cl)cc1 here?
**A.** Its Potency is inconclusive: 12.6 µM [inhibitor, single point].

**Q.** For COc1ccccc1-c1cnc2c(Nc3cccc(OC(F)(F)C(F)F)c3)nccn12, which Potency is on record?
**A.** Its Potency is inconclusive: 11.2 µM [inhibitor, partial curve, poor fit].

**Q.** For CCCc1cc(C(=O)OCC(=O)N2CCN(c3ccc(OC)cc3)CC2)sc1C, which Potency is on record?
**A.** Its Potency is inconclusive: 8.91 µM [inhibitor, partial curve].

**Q.** How did the Potency turn out when O=C(CCS(=O)(=O)c1ccc(Cl)cc1)N1CCN(S(=O)(=O)c2cccs2)CC1 was run?
**A.** The Potency was inconclusive: 28.2 µM [inhibitor, single point].

**Q.** For CC(O)(c1ccc(F)c(F)c1)c1nc(-c2cccc(C(F)(F)F)c2)cs1 (configuration not stated), which Potency is on record?
**A.** The Potency was inconclusive: 28.2 µM [inhibitor, single point].

**Q.** For COc1ccc(/C=C/c2nc3ccccc3c(=O)n2-c2cccc(C(F)(F)F)c2)cc1, which Potency is on record?
**A.** Its Potency is inconclusive: 2.51 µM [inhibitor, full curve].

**Q.** O=C(CCC(=O)N1CCN(S(=O)(=O)c2ccc(Cl)cc2)CC1)Nc1ccc2ccccc2c1 was tested. Which Potency did it give?
**A.** Its Potency is inconclusive: 3.55 µM [inhibitor, partial curve, poor fit].

**Q.** With Cn1nc(C(F)(F)F)c(C#N)c1N1CCN(c2ccccc2)CC1 as the molecule, how does the Potency read?
**A.** The Potency was inconclusive: 11.2 µM [inhibitor, single point].

**Q.** Which Potency does the source give for O=C(CC(=O)c1cccnc1)c1ccccc1 here?
**A.** The Potency was inconclusive: 12.6 µM [inhibitor, partial curve, poor fit].

**Q.** For Cc1ccc(C(=O)NC(C)(COc2nonc2C)COc2nonc2C)cc1, which Potency is on record?
**A.** Its Potency is inconclusive: 14.1 µM [inhibitor, partial curve, poor fit].

**Q.** How did the Potency turn out when O=C(COC(=O)CC1CC2CCC1C2)Nc1cc([N+](=O)[O-])ccc1F (configuration not stated) was run?
**A.** Its Potency is inconclusive: 12.6 µM [inhibitor, single point].

**Q.** Cc1cc(Br)ccc1OCC(=O)NC1CCCC1 was tested. Which Potency did it give?
**A.** The Potency was inconclusive: 12.6 µM [inhibitor, single point].

**Q.** For O=c1c2oc3ccccc3c2[nH]c(=S)n1-c1ccc(F)cc1, which “activity change, negative = inhibition” value is on record?
**A.** The value was inactive: 56.6%.

**Q.** For O=C(COc1ccccc1Br)c1ccc2c(c1)OCO2, which Potency is on record?
**A.** Its Potency is inconclusive: 28.2 µM [inhibitor, single point].

**Q.** COc1cc(OC)cc(-c2sc3ccc(OC)cc3c2-c2ccc(O)cc2)c1 was tested. Which Potency did it give?
**A.** The Potency was inconclusive: 12.6 µM [inhibitor, single point].

**Q.** For CCn1nc(C)c2c(-c3ccccc3)cc(=O)n(C(C)C(=O)NCc3ccc(C)cc3)c21 (configuration not stated), which Potency is on record?
**A.** The Potency was inconclusive: 31.6 µM [inhibitor, partial curve, poor fit].

**Q.** For CN(C(=O)CN(CCO)CC(=O)N(C)C(C)(C)Cc1ccccc1)C(C)(C)Cc1ccccc1, which Potency is on record?
**A.** The Potency was inconclusive: 28.2 µM [inhibitor, single point].

**Q.** For COc1ccc(-c2ccc(NC(=O)c3ccc(Br)o3)cc2)nn1, which “activity change, negative = inhibition” value is on record?
**A.** Its value is inactive: 11.5%.

**Q.** Which Potency does the source give for CCCCCNC(=O)CCn1c(=O)[nH]c2ccccc2c1=O here?
**A.** Its Potency is inconclusive: 2.24 µM [inhibitor, full curve].

**Q.** COc1ccc(-c2c(C#Cc3ccccc3)c3ccccc3n2C)cc1 was tested. Which Potency did it give?
**A.** Its Potency is inconclusive: 10 µM [inhibitor, single point].

**Q.** How did the “activity change, negative = inhibition” value turn out when CCc1nnc(NS(=O)(=O)c2ccc(NC(=O)c3ccccc3)cc2)s1 was run?
**A.** Its value is inactive: 8.81%.

**Q.** Which Potency does the source give for CCCCN1C(C)=CC(=C2C(=O)c3ccccc3C2=O)C=C1C here?
**A.** The Potency was inconclusive: 3.16 µM [inhibitor, full curve].

**Q.** Cc1oc(-c2cc3c(cc2Cl)OCO3)nc1CN1CCCC1c1ccc(F)cc1 (configuration not stated) was tested. Which Potency did it give?
**A.** The Potency was inconclusive: 28.2 µM [inhibitor, single point].

**Q.** For CC1CC(C)CN(C(=O)C2CCN(S(=O)(=O)c3cccc4cccnc34)CC2)C1 (configuration not stated), which Potency is on record?
**A.** The Potency was inconclusive: 31.6 µM [inhibitor, single point].

**Q.** With O=C(CSC1=Nc2ccccc2N=C(c2ccc(F)cc2)C1)NCc1ccc(Cl)cc1 as the molecule, how does the “activity change, negative = inhibition” value read?
**A.** The value was inactive: -1.39%.

**Q.** Which Potency does the source give for CCCN1C(=O)C(Cc2nc3ccccc3c(=O)n2C)c2ccccc21 (configuration not stated) here?
**A.** Its Potency is inconclusive: 3.98 µM [inhibitor, partial curve, poor fit].

**Q.** How did the Potency turn out when O=C(c1cc2ccccc2o1)N1CCCCCC1 was run?
**A.** The Potency was inconclusive: 28.2 µM [inhibitor, single point].

**Q.** With COc1nc(NC(=O)c2ccc(F)cc2)nc(OC)c1-c1ccccc1 as the molecule, how does the Potency read?
**A.** The Potency was inconclusive: 10 µM [inhibitor, partial curve, poor fit].

**Q.** For Oc1ccc(Br)cc1/C=N/Nc1ccccn1, which Potency is on record?
**A.** Its Potency is active: 2.82 µM.

**Q.** How did the “activity change, negative = inhibition” value turn out when COC(=O)N/N=C/c1c[n+]([O-])c2ccccc2[n+]1[O-] was run?
**A.** Its value is inactive: 8.56%.

**Q.** Which Potency does the source give for COc1cc2nc(Nc3ccc(F)cc3)nc(N)c2cc1OC here?
**A.** The Potency was inconclusive: 10 µM [inhibitor, partial curve, poor fit] and inconclusive: 11.2 µM [inhibitor, single point].

**Q.** For CCc1ccccc1OCCSc1nnc(-c2cc(OC)c(OC)c(OC)c2)o1, which Potency is on record?
**A.** Its Potency is inconclusive: 2.51 µM [inhibitor, single point].

**Q.** With O=C(N/N=C/c1ccco1)c1cccc(N2CCCC2=O)c1 as the molecule, how does the “activity change, negative = inhibition” value read?
**A.** The value was inactive: -3.19%.

**Q.** For COc1cc(CNCCc2ccc(F)cc2)ccc1OCc1ccc(Cl)nc1, which Potency is on record?
**A.** Its Potency is inconclusive: 15.8 µM [inhibitor, partial curve, poor fit].

**Q.** Which Potency does the source give for CC(=O)N1c2ccc(Cl)cc2C2C=CCC2C1c1cccc2ccccc12 (configuration not stated) here?
**A.** Its Potency is inconclusive: 10 µM [inhibitor, partial curve, poor fit].

**Q.** With c1ccc(Nc2nc(Nc3ccccc3)nc(N3CCNCC3)n2)cc1 as the molecule, how does the Potency read?
**A.** The Potency was inconclusive: 10 µM [inhibitor, partial curve, poor fit].

**Q.** How did the Potency turn out when C[C@H](NS(=O)(=O)c1ccccc1)C(=O)N1CCN(C(c2ccccc2)c2ccccc2)CC1 was run?
**A.** The Potency was inconclusive: 0.316 µM [inhibitor, full curve, poor fit].

**Q.** With CCC(C)c1ccc(C(C)NC(=S)NCc2ccc(F)cc2)cc1 (configuration not stated) as the molecule, how does the Potency read?
**A.** Its Potency is inconclusive: 3.55 µM [inhibitor, full curve, poor fit].

**Q.** How did the Potency turn out when COC(=O)c1ccc(CSc2nc3ccccc3c(=O)n2-c2cccc(OC)c2)o1 was run?
**A.** The Potency was inconclusive: 28.2 µM [inhibitor, single point].

**Q.** For CCOC(=O)c1cccc(NC(=O)C(Cc2ccccc2)NS(=O)(=O)c2cccc3nsnc23)c1 (configuration not stated), which Potency is on record?
**A.** Its Potency is inconclusive: 11.2 µM [inhibitor, single point].

**Q.** For C=CCC[C@@H](Cc1ccc(F)cc1)C(=O)O[C@H](CNC(=O)[C@H](CC=C)CC(=O)N(CCO)Cc1ccccc1)c1ccccc1, which Potency is on record?
**A.** Its Potency is inconclusive: 2 µM [inhibitor, partial curve, poor fit].

**Q.** Which “activity change, negative = inhibition” value does the source give for COc1ccc(CNC(=O)CN2C(=O)CSc3ccc(S(=O)(=O)N4CCCC4)cc32)cc1 here?
**A.** The value was inactive: -24.3%.

**Q.** Which Potency does the source give for Cc1ccc(C(=O)NC(NC(=S)Nc2ccc(S(N)(=O)=O)cc2)C(Cl)(Cl)Cl)cc1 (configuration not stated) here?
**A.** Its Potency is active: 5.62 µM.

**Q.** With O=[N+]([O-])c1ccccc1OCC(O)CN1CCN(CC(O)COc2ccccc2[N+](=O)[O-])CC1 (configuration not stated) as the molecule, how does the “activity change, negative = inhibition” value read?
**A.** The value was inactive: -27%.

**Q.** How did the “activity change, negative = inhibition” value turn out when CCCn1c2ccccc2c2cnn(CC(=O)NCc3cc(OC)ccc3OC)c(=O)c21 was run?
**A.** The value was inactive: 15.7%.

**Q.** With COc1ccc(C)cc1-n1nnnc1SCC(=O)c1cc(C)n(Cc2ccco2)c1C as the molecule, how does the Potency read?
**A.** The Potency was inconclusive: 10 µM [inhibitor, partial curve, poor fit].

**Q.** With COC(=O)c1c(NC(=O)CN2CCC3(O)CCCCC3C2c2cc(OC)ccc2OC)sc(C)c1C (configuration not stated) as the molecule, how does the Potency read?
**A.** The Potency was inconclusive: 11.2 µM [inhibitor, partial curve, poor fit].

**Q.** With N#CC(Cc1cc2ccccc2n1S(=O)(=O)c1ccccc1)OCc1ccccc1 (configuration not stated) as the molecule, how does the Potency read?
**A.** The Potency was inconclusive: 28.2 µM [inhibitor, single point].

**Q.** Cc1ccc(C)c(Nc2nc3nonc3nc2Nc2cccc(C)c2C)c1 was tested. Which Potency did it give?
**A.** Its Potency is inconclusive: 7.08 µM [inhibitor, partial curve, poor fit].

**Q.** With Cc1ccc(NC(=S)NNC(=S)Nc2cccc(C(F)(F)F)c2)cc1 as the molecule, how does the Potency read?
**A.** Its Potency is inconclusive: 3.16 µM [inhibitor, full curve, poor fit].

**Q.** CCN(CC)c1cc(C)c2cc(NC(=O)c3ccc(Br)o3)ccc2n1 was tested. Which Potency did it give?
**A.** The Potency was inconclusive: 10 µM [inhibitor, partial curve, poor fit].

**Q.** For Cc1cccc(Cn2cc(C(=O)Nc3ccc(S(N)(=O)=O)cc3)ccc2=O)c1, which “activity change, negative = inhibition” value is on record?
**A.** Its value is inactive: 11.5%.

**Q.** How did the Potency turn out when CCc1ccccc1NC(=O)C(C)n1nc(-c2ccc(C)c(C)c2)ccc1=O (configuration not stated) was run?
**A.** The Potency was inconclusive: 8.91 µM [inhibitor, partial curve, poor fit].

**Q.** How did the Potency turn out when CCCCNC(=O)C1C(c2ccc(C(F)(F)F)cc2)=Nc2ccccc2N1C(C)=O (configuration not stated) was run?
**A.** The Potency was inconclusive: 15.8 µM [inhibitor, partial curve, poor fit].

**Q.** With Cc1cc2c(cc1C)NC(=O)CC(C(F)(F)C(F)(F)C(F)(F)F)=N2 as the molecule, how does the Potency read?
**A.** The Potency was inconclusive: 4.47 µM [inhibitor, partial curve, poor fit].

**Q.** With Cc1cccc(Nc2nnc(SCC(=O)Nc3cccc(S(=O)(=O)N4CCCCC4)c3)s2)c1 as the molecule, how does the Potency read?
**A.** Its Potency is inconclusive: 28.2 µM [inhibitor, single point].

**Q.** With O=[N+]([O-])c1ccc(NCc2ccc3c(c2)OCO3)cc1 as the molecule, how does the “activity change, negative = inhibition” value read?
**A.** The value was inactive: 12.3%.

**Q.** Which “activity change, negative = inhibition” value does the source give for NNC(=O)COc1cccc(C(F)(F)F)c1 here?
**A.** Its value is inactive: -5.84%.

**Q.** How did the Potency turn out when CCOC(=O)c1c(-c2ccc(-c3ccccc3)cc2)csc1NC(=O)CCN1CCOCC1 was run?
**A.** The Potency was inconclusive: 5.01 µM [inhibitor, full curve].

**Q.** With CCc1cccc(OCC(=O)N(C)CC(=O)Nc2cccc(F)c2)c1 as the molecule, how does the Potency read?
**A.** The Potency was inconclusive: 8.91 µM [inhibitor, partial curve].

**Q.** Which Potency does the source give for COc1cc(N/N=C(\C)c2ccc(O)c(C)c2)nc(-c2ccccc2)n1 here?
**A.** Its Potency is inconclusive: 10 µM [inhibitor, partial curve, poor fit].

**Q.** Which “activity change, negative = inhibition” value does the source give for CCN(CC)CCNC(=O)c1ccc(-n2c(-c3ccccc3)cc3c2CCCC3)cc1 here?
**A.** Its value is inactive: -15.3%.

Reference: PubChem BioAssay AID624417 (National Center for Advancing Translational Sciences (NCATS), 2012)
